# Assay results published in the BET-seq Pho4 binding data (Le et al. 2018).
# Some of the results follow. Values were computed here from the reads of four pooled replicates and scatter widely.
# Target: T1, Pho4 (S. cerevisiae) (UniProt P07270)
# T1 sequence: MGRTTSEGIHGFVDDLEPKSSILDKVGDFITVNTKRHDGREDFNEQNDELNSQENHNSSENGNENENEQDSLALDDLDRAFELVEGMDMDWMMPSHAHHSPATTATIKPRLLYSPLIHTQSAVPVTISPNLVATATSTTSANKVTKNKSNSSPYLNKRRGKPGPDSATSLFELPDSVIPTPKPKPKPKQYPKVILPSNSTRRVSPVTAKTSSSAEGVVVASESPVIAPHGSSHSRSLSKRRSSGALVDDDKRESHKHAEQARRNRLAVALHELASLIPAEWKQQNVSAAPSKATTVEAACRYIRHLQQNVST
# Assay: relative binding free energy (BET-seq); higher = weaker binding
# Conditions: reference: library average
row,Sequence,relative binding free energy [kcal/mol]
1,TGGATCACGTGTGCTG,0.15
2,TCTGTCACGTGAGTGT,0.28
3,GTTTACACGTGGCTTG,0.06
4,CGGTGCACGTGAGTTA,0.3
5,GGAGGCACGTGTTGAA,0.06
6,TTATACACGTGGTAGT,-0.01
7,TTGGGCACGTGGCTAA,-0.22
8,TGTTGCACGTGCTGGA,0.01
9,ATAGTCACGTGATGTC,0.16
10,TCGTGCACGTGGCGTA,-0.14
11,ATTTGCACGTGTAAGG,0.02
12,AGGTGCACGTGGGGAT,-0.09
13,AGGTACACGTGCGGAT,-0.06
14,CGTAGCACGTGTCGGA,0.03
15,GGCACCACGTGTTGTG,0.14
16,AATTGCACGTGGGCTG,-0.29
17,GGGCACACGTGAGCGG,0.32
18,TGGGTCACGTGATGTC,0.32
19,CGGCTCACGTGGGGTC,0.24
20,AGTGTCACGTGTATGG,0.02
21,GGTCACACGTGTGATT,0.31
22,AAGTTCACGTGTCTGT,0.16
23,TTGGTCACGTGATAAT,0.22
24,CTCGTCACGTGTGTGA,0.04
25,TGATACACGTGGTGTG,-0.15
26,AATATCACGTGTATGG,0.03

row,Sequence,relative binding free energy [kcal/mol]
1,TGCGGCACGTGTGTGG,-0.02
2,GTTACCACGTGTTCGT,0.14
3,TGGAACACGTGACAGG,0.37
4,TTAGGCACGTGTCGCG,-0.09
5,ACGTGCACGTGGATTG,-0.07
6,ATACGCACGTGGTTAG,-0.16
7,TTAGTCACGTGTTGCG,0.05
8,GGGGTCACGTGCTGGC,0.04
9,GGTTGCACGTGGTATG,0.03
10,TGCATCACGTGGGGCT,-0.05
11,GTGGACACGTGCTTAG,0.03
12,AATGTCACGTGTCGAG,0.25
13,TAGTACACGTGCGAGT,0.19
14,ATATACACGTGAGTGT,0.17
15,GGGGGCACGTGCGGCG,-0.19
16,ATGGACACGTGACTGT,0.15
17,GACGTCACGTGGGGTC,0.06
18,TTTTACACGTGTGACT,0.11
19,GGTCGCACGTGTTATT,0.02
20,AACGTCACGTGGGCGT,0.02
21,CTCTTCACGTGTTATT,0.15
22,TTTGGCACGTGGCTGC,-0.26
23,ATGTTCACGTGTGGAG,0.34
24,AGTAGCACGTGATTGA,0
25,GCTAGCACGTGTGGGT,-0.09
26,GTAGCCACGTGTTGTT,0

row,Sequence,relative binding free energy [kcal/mol]
1,TTGGGCACGTGGGCCG,-0.26
2,TGAGCCACGTGAGGGT,0.22
3,TTGCTCACGTGTTGTT,0.21
4,TGCGGCACGTGTTATA,-0.09
5,TGTTTCACGTGTAGGT,0.27
6,TGGATCACGTGAAGAG,0.32
7,CGGTCCACGTGTTGGT,0.12
8,AGGTGCACGTGCGTGA,-0.09
9,ATAGACACGTGGTACG,-0.03
10,TGAGGCACGTGGTTCC,-0.13
11,TGCTGCACGTGGTCGG,-0.2
12,AGGAGCACGTGCGTTG,-0.27
13,AATGGCACGTGTCTGA,0.01
14,AGTGTCACGTGTAGTG,-0.02
15,ATGTCCACGTGTGGGG,-0.03
16,GGGGGCACGTGAGCGA,0.18
17,TTGGTCACGTGCCGGT,0.06
18,CTAGGCACGTGAAGTT,0.01
19,TATGACACGTGAGGCT,0.2
20,ATGGGCACGTGAATTG,0.1
21,TAGTGCACGTGCGGAG,0.03
22,GTAAACACGTGTGGCT,0.07
23,TGTGGCACGTGGCAAA,-0.21
24,AATTTCACGTGTAAGA,0.27
25,GAGGGCACGTGACTGG,-0.11
26,CGGCTCACGTGTGGGT,0.38

row,Sequence,relative binding free energy [kcal/mol]
1,TTCCACACGTGGTTGT,0.2
2,TAGTTCACGTGCTATA,0.12
3,ATGGGCACGTGAAGGA,0.27
4,ATTTTCACGTGAGCTG,0.39
5,GCTTTCACGTGATGGG,0.38
6,TGTGCCACGTGTGCAG,-0.15
7,AGTTACACGTGAAGAG,0.41
8,AGGGCCACGTGGTGAG,-0.12
9,TTATGCACGTGTGGCG,0.12
10,CTGGGCACGTGGGCGC,-0.25
11,GCTTTCACGTGGGGTG,0.06
12,TTCTACACGTGTAGTA,0.18
13,ATGACCACGTGGGGGT,-0.19
14,TTGTTCACGTGGCATG,0.15
15,TCTTGCACGTGGTGCT,-0.02
16,TCTTTCACGTGTGGCG,0.42
17,AATTGCACGTGACAGG,0.27
18,CTGGACACGTGGCGGA,0.06
19,ATGCTCACGTGTTTCT,0.35
20,GTGTTCACGTGATTAG,0.4
21,GTGTACACGTGAATAG,0.43
22,AGTCTCACGTGGTAGA,0.34
23,CGTAGCACGTGGACGG,0.02
24,CGTGTCACGTGAGCTG,0.16
25,ATGGGCACGTGGTCAT,-0.3
26,GGAGTCACGTGTTGTC,0.24

row,Sequence,relative binding free energy [kcal/mol]
1,GTTTGCACGTGGGCAG,-0.2
2,GTTGTCACGTGCGATT,0.23
3,ATTGTCACGTGTAAAA,0.25
4,GGGGCCACGTGACTGT,0.09
5,TGTGACACGTGGGCTA,-0.11
6,TTATGCACGTGGTTGA,-0.1
7,TAAATCACGTGGATGT,0.13
8,TCGTTCACGTGTGGCT,0.2
9,GTGGACACGTGTCATG,0.02
10,GTTGCCACGTGTGTGG,0.09
11,ATGAGCACGTGTCGTG,-0.1
12,ATTTTCACGTGAAAAT,0.13
13,GAGGGCACGTGAAGGT,0.22
14,TTGACCACGTGTTGTG,-0.07
15,TGGAGCACGTGTAATA,-0.06
16,ATTTCCACGTGGCGGT,0.1
17,AGTGACACGTGAAGAG,0.11
18,CTGGTCACGTGCAGGG,0.18
19,GGTTACACGTGAGTCT,0.35
20,AACGGCACGTGTGGGC,-0.04
21,ATGGCCACGTGGTGGT,-0.13
22,AGGGACACGTGTGGTG,0.06
23,AGGGTCACGTGCGTAT,-0.02
24,GCGGGCACGTGTTAGG,-0.06
25,GTGTGCACGTGCGTTT,-0.09
26,CGAAACACGTGGGTTT,-0.07

row,Sequence,relative binding free energy [kcal/mol]
1,TCTAGCACGTGTGGTG,-0.07
2,TGCCTCACGTGGCGGG,0.1
3,AGAGTCACGTGGTAGG,-0.06
4,TGGATCACGTGTGATG,0.29
5,TAATGCACGTGGTTGT,-0.14
6,TGATCCACGTGGGAGG,-0.11
7,ATGGTCACGTGGGAGT,0.03
8,TGGATCACGTGGGGTC,0.2
9,TATAACACGTGTGGTA,0.01
10,AGCGGCACGTGTGAGC,0.03
11,TGGAGCACGTGATGAG,0.1
12,AGCTGCACGTGGAGTG,-0.04
13,TGCGTCACGTGTGAGG,0.04
14,TTGTTCACGTGTCAAT,0.3
15,CGGGTCACGTGGCTGA,-0.01
16,GAAAGCACGTGCGTGT,-0.09
17,ATTTGCACGTGCTATG,-0.12
18,TTCTCCACGTGGTTGG,-0.01
19,TGTAGCACGTGGGTAA,-0.23
20,GTACTCACGTGGTATT,0.1
21,GAGGTCACGTGAGGTA,0.19
22,TGGTCCACGTGAGGAG,0.13
23,GGGTGCACGTGATCCG,0.12
24,TTGGTCACGTGTTACT,0.09
25,ATTTCCACGTGGCGTT,0.07
26,TGATGCACGTGACGGT,0.18

row,Sequence,relative binding free energy [kcal/mol]
1,AATTTCACGTGTGATC,0.39
2,TTAGTCACGTGTGAGG,0.07
3,AGAGTCACGTGCGTGT,0.08
4,AGGGGCACGTGGGACC,-0.05
5,TGAATCACGTGAGTTC,0.59
6,TGAAGCACGTGGGAGC,-0.08
7,TGGCACACGTGTCGTG,-0.02
8,TTGATCACGTGTTCGG,0.15
9,TAAGGCACGTGGGGGC,-0.32
10,TATCGCACGTGTTAAA,0.18
11,TTATTCACGTGGTATG,0.1
12,TACATCACGTGGTAGT,0.08
13,TTGTTCACGTGGTTGG,0.29
14,TTTAGCACGTGTTTAA,-0.08
15,TGTCTCACGTGAGTAG,0.46
16,GGTGACACGTGAAATG,0.47
17,CTTTACACGTGCTTGG,0.08
18,GGGCGCACGTGGGCGC,-0.22
19,TGGCTCACGTGATTGT,0.33
20,TTTAGCACGTGTATTT,-0.02
21,CGGCTCACGTGTGGAG,0.15
22,TCTTGCACGTGATGTG,-0.04
23,TGTGTCACGTGCAGAT,-0.08
24,TTATTCACGTGACGTT,0.36
25,TTTGTCACGTGGAAAT,0.31
26,GGTGACACGTGCAAGG,0.2

row,Sequence,relative binding free energy [kcal/mol]
1,TCTTTCACGTGTAGGT,0.21
2,TTTTTCACGTGTTCAT,0.17
3,TTCGTCACGTGGTCGA,0.09
4,GAATTCACGTGTAAGG,0.35
5,TGGTGCACGTGTATAA,0.12
6,AGCGTCACGTGATGAG,0.27
7,GTCACCACGTGGGTGG,-0.17
8,TAAGGCACGTGTTCGG,-0.16
9,GGTAGCACGTGGAATG,0
10,TCTTGCACGTGGGTGT,-0.16
11,AAGGACACGTGTGGGA,0.02
12,GGTGGCACGTGTTTTT,0.09
13,ACTGGCACGTGTATTA,0.05
14,ACTGTCACGTGTTAGG,-0.03
15,CAATGCACGTGTTTGG,0.11
16,CGGGGCACGTGCATTG,0.03
17,TTAAACACGTGTGTCG,-0.06
18,GGAAGCACGTGGACTG,-0.03
19,GGGGACACGTGGGGTG,-0.04
20,CCTTGCACGTGTGGGG,-0.03
21,TAGTGCACGTGATGGT,0.11
22,GTAGACACGTGGGGGG,-0.15
23,TCGGTCACGTGAGGAT,0.24
24,AAGTTCACGTGTAGCT,0.25
25,GTTATCACGTGTGAGC,0.41
26,CTTGTCACGTGCGTAG,0.04

row,Sequence,relative binding free energy [kcal/mol]
1,TTTAACACGTGTGGTT,0.09
2,ATGTACACGTGAAGGA,0.4
3,ATTGTCACGTGTGAAT,0.22
4,CTCTTCACGTGTAGGG,0.16
5,CGGGGCACGTGAGATT,0.28
6,GCGGACACGTGGTGAT,0.02
7,GCGGCCACGTGTTGTG,0.05
8,GGATTCACGTGGAGGC,0.29
9,AGAAGCACGTGCGGGT,-0.12
10,CAAGGCACGTGGGGTT,-0.22
11,GGTTGCACGTGTTTTC,0.22
12,GATAGCACGTGGGTGC,-0.16
13,TTTTGCACGTGAAAGT,0.27
14,GCTGTCACGTGTGGAT,0.04
15,ATCGTCACGTGGCGTT,0.04
16,AGTTGCACGTGCCAGG,-0.06
17,TGTTGCACGTGATTTT,0.12
18,GTGTTCACGTGTAAGC,0.4
19,CCGGTCACGTGTGGCT,0.21
20,TCGGGCACGTGTCGCG,-0.04
21,AGGGCCACGTGGTGGA,-0.16
22,GGGGACACGTGATGAT,0.35
